Reference: US20240082282A1 (priority 2020, published 2024)
≈ marks a conversion by molar mass, not a printed value.

Key:
[1] = test system: Escherichia coli W0153; experiment: microbe, parasite or virus in culture; conditions: W0153, read-out: Minimum inhibitory concentration (MIC)
[2] = test system: Escherichia coli W0153

Row | Compound | MIC [1] | Minimum inhibitory concentration (MIC) [2]
1 | CC1(C)S[C@@H]2[C@H](NC(=O)[C@H](N)c3ccc(O)cc3)C(=O)N2[C@H]1C(=O)O [Amoxicillin] | 4 µg/mL (≈ 10.9 µM) | –
2 | CO/N=C(\C(=O)N[C@@H]1C(=O)N2C(C(=O)O)=C(CSc3nc(=O)c(=O)[nH]n3C)CS[C@H]12)c1csc(N)n1 [Ceftriaxone] | 0.01 µg/mL (≈ 0.018 µM) | –
3 | C[C@H]1c2cccc(O)c2C(=O)C2=C(O)[C@]3(O)C(=O)C(C(N)=O)=C(O)[C@@H](N(C)C)[C@@H]3[C@@H](O)[C@@H]21 [Doxycycline] | 0.12 µg/mL (≈ 0.27 µM) | –
4 | Hygromycin A | – | 16 µg/mL
